Data published in PubChem BioAssay AID485294 (National Center for Advancing Translational Sciences (NCATS), 2010).
About 150 (0.041%) of roughly 370,000 compounds were called active. This list was built around the results that the source calls inconclusive (neither active nor inactive); the mix of calls is not that of the screen. Calls come from the whole dose curve; as a rule, active = well fitted inhibition curve with a large enough effect; inconclusive = small, poorly fitted or top-dose-only effect; inactive = flat fitted curve, though single readings scatter. No potency is given beside an inconclusive call; the fits are too rough.

What follows are molecules tested against Beta-lactamase (Escherichia coli (strain K12)) (UniProt P00811) (assay: qHTS Inhibitors of AmpC Beta-Lactamase (assay with detergent)). Conditions: AmpC hydrolysis of nitrocefin, absorbance 480 nm, 0.01% Triton; activity change, negative = inhibition: at 114 µM (top of the series).
UniProt P00811, sequence (P00811 whole entry, looked up): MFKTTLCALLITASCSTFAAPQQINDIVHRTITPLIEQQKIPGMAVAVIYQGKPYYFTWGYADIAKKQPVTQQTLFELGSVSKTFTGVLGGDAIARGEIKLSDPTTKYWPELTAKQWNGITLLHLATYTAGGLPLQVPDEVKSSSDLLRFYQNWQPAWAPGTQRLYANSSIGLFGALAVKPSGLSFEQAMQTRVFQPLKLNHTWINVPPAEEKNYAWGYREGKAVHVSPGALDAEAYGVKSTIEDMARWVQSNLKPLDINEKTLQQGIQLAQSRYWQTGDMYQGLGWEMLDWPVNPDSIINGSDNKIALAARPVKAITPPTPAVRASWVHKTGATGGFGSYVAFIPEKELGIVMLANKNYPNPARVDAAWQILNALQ
In short: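 AmpC (5.3 nM in the dispensed reagent) in 20 mM phosphate pH 7.0 with 0.01% (detergent screen) or 0.0001% Triton X-100 was preincubated with compounds for 15 min at room temperature. Nitrocefin was then added from an 800 uM solution, and hydrolysis was followed at 480 nm.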
Note: nearly all actives have a fitted effect of over 25% in size.
Potency is the fitted concentration of half-maximal effect; tags give direction and shape of the fitted curve.
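Throughout, for activity change, negative = inhibition: 0% = no-compound wells and -100% = no-enzyme wells.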

Row | Structure (SMILES) | activity change, negative = inhibition | Potency
1 | O=C(Nc1nnc(C2=COCCO2)o1)c1ccc(F)cc1 | inactive: -8.73% | 
2 | Cc1ccc(CSc2nc(=O)c3c(C)cc(C)nc3n2C2CC2)cc1 | inactive: 19.4% | 
3 | COc1ccccc1NC(=O)C(C)OC(=O)C(C)SCC(=O)Nc1ccc(C)cc1 (stereo not drawn) |  | inconclusive [inhibitor, full curve, poor fit]
4 | Cc1cc(C(=O)Nc2ccon2)cs1 |  | inconclusive [inhibitor, partial curve, poor fit]
5 | CCOC(=O)c1cc(-c2ccc(F)cc2)n(CCC(=O)Nc2ccccc2OC)c1C | inactive: 9.32% | 
6 | CC(=O)C1=C(C)NC(C)=C(C(C)=O)C1c1cn(-c2ccccc2)nc1-c1cccs1 |  | inconclusive [inhibitor, full curve, poor fit]
7 | C=CCn1c(C)nnc1SCC(=O)c1c(N)n(C2CC2)c(=O)[nH]c1=O |  | inconclusive [inhibitor, partial curve, poor fit]
8 | COc1ccc(CNC(=O)C(C)OC(=O)CCN2C(=O)C3CC=CCC3C2=O)cc1 (stereo not drawn) |  | inconclusive [inhibitor, full curve, poor fit]
9 | CCCOc1ccc(/C(O)=C2/C(=O)C(=O)N(CCCn3ccnc3)C2c2cccnc2)cc1 (stereo not drawn) |  | inconclusive [inhibitor, single point]
10 | CCCN1CCN(C(=O)CCNC(=O)Cn2cnc3ccccc3c2=O)CC1 |  | inconclusive [inhibitor, partial curve]
11 | CCOc1ccc(NC2=C(Cl)C(=O)N(Cc3ccccc3)C2=O)cc1 | inactive: 0.63% | 
12 | Cc1c(NC(=O)Cn2ccc([N+](=O)[O-])n2)c(=O)n(-c2ccccc2)n1C |  | inconclusive [inhibitor, single point]
13 | COC(=O)c1cnn(-c2ccc(F)cc2F)c1/C=N/NC(N)=S | inactive: 0.979% | 
14 | Cc1ccccc1OCC(=O)NNC(=O)c1ccc(-n2cncn2)c([N+](=O)[O-])c1 |  | inconclusive [inhibitor, full curve]
15 | c1ccc(C2c3[nH]c4ccccc4c3CCN2Cc2cccn2-c2ccccn2)nc1 (stereo not drawn) | inactive: 1.87% | 
16 | O=C(CN1C(=O)COc2ccccc21)NC1CCCC1 |  | inconclusive [inhibitor, single point]
17 | Cc1sc(=NC(=O)c2ccco2)n(C)c1-c1ccc(F)cc1 | inactive: -9.03% | 
18 | Cc1ccc(C)c(NC(=O)COc2cccc3c2CCN(Cc2ccccc2C)C3=O)c1 | inactive: -2.89% | 
19 | CCOC(=O)CN(C(=O)CSc1nnc(CNc2ccc(F)cc2)n1CC)c1ccc(F)cc1 |  | inconclusive [inhibitor, partial curve, poor fit]
20 | Cc1cc(C)n2nc(C(=O)OCC(=O)Nc3ccc(F)cc3F)nc2n1 |  | inconclusive [inhibitor, full curve, poor fit]
21 | CN(C)c1ccc(CNc2ncc(Br)cc2Br)cc1 | inactive: -2.6% | 
22 | COc1cc(NC(=O)C2=C(C)Nc3nnnn3C2c2ccc(SC)cc2)c(OC)cc1Cl (stereo not drawn) | inactive: -0.465% | 
23 | NNC(=O)c1cn2ccccc2n1 | inactive: -5.76% | 

Row | Structure (SMILES) | activity change, negative = inhibition | Potency
24 | CCn1c(=O)c(C(=O)NCc2ccc3c(c2)OCO3)c(O)c2ccccc21 |  | inconclusive [inhibitor, partial curve, poor fit]
25 | COCCNP(=O)(c1ccccc1)c1nc2ccccc2s1 (stereo not drawn) | inactive: -4.98% | 
26 | CCOc1ccc(C(=O)Nc2ccc(Cc3ccncc3)cc2)cc1Br |  | inconclusive [inhibitor, single point]
27 | Cc1cc(C(=O)N2CCCC(N3CCN(Cc4ccc5c(c4)OCO5)CC3)C2)n[nH]1 (stereo not drawn) |  | inconclusive [inhibitor, full curve, poor fit]
28 | COc1ccc(-c2noc(C(C)NC(=O)c3ccco3)n2)cc1OC (stereo not drawn) | inactive: 5.53% | 
29 | COc1cccc(-c2nnc(N(C)C(=O)C3CCOC3)s2)c1 (stereo not drawn) |  | inconclusive [inhibitor, full curve, poor fit]
30 | O=C1CC(c2ccccc2)CC(O)=C1C=NC1CCCCCC1 (stereo not drawn) | inactive: 1.2% | 
31 | Cc1cc(N2C(=O)C(=O)/C(=C(/O)c3ccccc3)C2c2cccs2)no1 (stereo not drawn) |  | inconclusive [inhibitor, full curve, poor fit]
32 | CCN1C(=O)/C(=C\c2cccs2)C(C(=O)OC)=C1C |  | inconclusive [inhibitor, full curve, poor fit]
33 | CNC(=S)NNC(=O)c1cccn(Cc2ccc(Cl)c(Cl)c2)c1=O |  | inconclusive [inhibitor, partial curve, poor fit]
34 | CCN(CC)CCOC(=O)c1ccc(NC(=O)c2nn(-c3ccc(C)cc3)c(=O)c3c2c2ccccc2n3C)cc1 | inactive: -4.23% | 
35 | COc1ccc(/C(O)=C2/C(=O)C(=O)N(Cc3ccco3)C2c2cccs2)cc1 (stereo not drawn) | inactive: -3.87% | 
36 | COc1ccc(C)cc1S(=O)(=O)N1c2ccc(C)cc2C2CN(C)CCC21 (stereo not drawn) |  | inconclusive [inhibitor, full curve, poor fit]
37 | COCCN(Cc1ccccc1)C(=O)C1CCN(S(=O)(=O)c2ccc3c(c2)OCCO3)CC1 |  | inconclusive [inhibitor, partial curve, poor fit]
38 | CCC(C)n1c(SCC(=O)NC2CCCC2)nc2ccccc2c1=O (stereo not drawn) |  | inconclusive [inhibitor, full curve, poor fit]
39 | COc1c2c(cc3c1OCO3)CCN(C)C2 |  | inconclusive [inhibitor, partial curve, poor fit]
40 | CSc1ccccc1NC(=O)C1=CC(c2ccc3c(c2)OCO3)=NS(=O)(=O)N1C | inactive: -7.64% | 
41 | CC1(c2nnc(Cc3ccccc3)o2)CC(c2ccccc2[N+](=O)[O-])=NO1 (stereo not drawn) |  | inconclusive [inhibitor, full curve]
42 | COCCN1C(=O)Cc2c1nc(N)c1c(N)nc(N3CCN(c4ccc(F)cc4)CC3)c(C#N)c21 | inactive: -0.858% | 
43 | Cc1cc(C)cc(-n2c(SC(C)C(=O)NCc3ccc4c(c3)OCO4)nc3ccccc3c2=O)c1 (stereo not drawn) | inactive: -9.89% | 
44 | COc1ccccc1NC(=O)c1sc2nc(Cc3ccccc3)cc(C(F)(F)F)c2c1N |  | inconclusive [inhibitor, full curve, poor fit]
45 | CCOc1ccccc1C(=O)N(Cc1ccc(N(C)C)cc1)Cc1ccco1 | inactive: -5.46% | 
46 | O=C(N/N=C/c1ccccc1OCc1ccccc1)c1cccnc1 |  | inconclusive [inhibitor, partial curve]

Row | Structure (SMILES) | activity change, negative = inhibition | Potency
47 | Cc1cccc2cc(C#N)c(N3CCOCC3)nc12 |  | inconclusive [inhibitor, full curve, poor fit]
48 | C/C(=N\NC(=O)c1ccccc1O)c1ccc(NC(=O)Cc2ccccc2)cc1 |  | inconclusive [inhibitor, full curve, poor fit]
49 | CC(=O)Nc1cccc(NC(=O)C2CC3CCC2C3)c1 (stereo not drawn) |  | inconclusive [inhibitor, full curve, poor fit]
50 | O=[N+]([O-])c1cccc(S(=O)(=O)N2CCCCCC2)c1 |  | inconclusive [inhibitor, single point]
51 | COC(=O)N1CC=CC1(C)C(=O)NCc1cc(F)cc(C(F)(F)F)c1 (stereo not drawn) |  | inconclusive [inhibitor, partial curve, poor fit]
52 | CCOC(=O)c1ccc2c(c1)n(CC)c(/C=C/N(C)c1ccccc1)[n+]2CC |  | inconclusive [inhibitor, partial curve]
53 | CCN(CC)c1ccc(CN(C(=O)c2cc(OC)c(OC)c(OC)c2)C2CCS(=O)(=O)C2)cc1 (stereo not drawn) |  | inconclusive [inhibitor, full curve, poor fit]
54 | Cc1ccc(C(=O)NC2CC(=O)N(c3ccc4c(c3)OCCO4)C2)cc1[N+](=O)[O-] (stereo not drawn) |  | inconclusive [inhibitor, partial curve, poor fit]
55 | Cc1coc2c(C)c3oc(=O)c(CCC(=O)NCCCN4CCOCC4)c(C)c3cc12 |  | inconclusive [inhibitor, partial curve, poor fit]
56 | O=C(c1oc(=O)c2ccccc2c1-c1ccccc1)N1CCN(C2CCCCC2)CC1 |  | inconclusive [inhibitor, full curve, poor fit]
57 | COc1cccc(NC(=O)C(C)C)c1 | inactive: -1.97% | 
58 | CCOc1cc(/C=N\NC(=O)CN2CCOCC2)ccc1OCc1ccc(F)cc1 |  | inconclusive [inhibitor, partial curve, poor fit]
59 | COc1ccc(C(=O)c2cn(Cc3ccccc3F)c3ccc(F)cc3c2=O)cc1 | inactive: -11.9% | 
60 | CCN1C(=O)N(c2cccc3ccccc23)C(C)=CC1(C)C |  | inconclusive [inhibitor, partial curve, poor fit]
61 | COc1ccccc1N1C(=O)CC(N2CCN(c3ccc([N+](=O)[O-])cc3)CC2)C1=O (stereo not drawn) | inactive: -0.795% | 
62 | Cc1nc(OCc2ccccc2)c2ccccc2n1 | inactive: 0.559% | 
63 | COc1ccc(/C=C/c2nc3ccccc3n2Cc2ccccc2OC)cc1 | inactive: -10.5% | 
64 | CCOC(=O)C1=C(COC(=O)c2ccc(C)s2)NC(=O)NC1C (stereo not drawn) |  | inconclusive [inhibitor, full curve, poor fit]
65 | [2H]C(CCOS(N)(=O)=O)c1ccc(C(C)(C)C)cc1 (stereo not drawn) |  | inconclusive [inhibitor, full curve]
66 | COc1ccc(C(=O)Nc2ccc3c(c2)nc(CN2CCN(C(C)=O)CC2)n3C)cc1 |  | inconclusive [inhibitor, partial curve, poor fit]
67 | O=C(Cc1ccc(F)cc1)N/N=C/c1ccccn1 |  | inconclusive [inhibitor, full curve]
68 | COC(=O)c1cc(S(=O)(=O)NCc2cc(OC)c(OC)c(OC)c2)cn1C |  | inconclusive [inhibitor, full curve, poor fit]
